# This is one part of the list.
# B1: FedF (Escherichia coli), Q47212 (protein)
# chain: MRLKYILIIPLLLISLSVFASTLQVDKSVSYDWINSSASSAQVTGTLLGTGKTNTTQMPALYTWQHQIYNVNFIPSSSGTLTCQAGTILVWKNGRETQYALECRVSIHHSSGSINESQWGQQSQVGFGTACGNKKCRFTGFEISLRIPPNAQTYPLSSGDLKGSFSLTNKEVNWSASIYVPAIAKSYRLDTSITLPDTVNLKQNQATPVYYTFSAPSVSNTITGIPNQNDMPSSNVKLTIGPIQSKTTALYVQPDATGSWYDLSKSITMTVVKSSMLNFKGINAKPGNVTLSVPIVFEIQ
# How the values were obtained:
# Experiment in all cases: glycan array binding signal (z-score within array); higher = stronger binding
# Details in all cases: glycan notation: IUPAC condensed, linker removed
# [1] = target: Fuc(a1-2)Gal(b1-4)[Fuc(a1-3)]GlcNAc
# Outline: (§1)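 Glycan array data were curated from 3228 arrays in the Consortium for Functional Glycomics database and kept only where the protein sequence was available. Glycan names were converted to IUPAC-condensed notation, and columns mapping to the same glycan were averaged. The binding signal is a within-array Z-score, averaged across arrays of the same protein sequence at different concentrations or buffers and across linkers. Negative Z-scores can be read as non-binding.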
# [2] = target: Fuc(a1-2)Gal(b1-4)[Fuc(a1-3)]GlcNAc(b1-2)Man(a1-3)[Fuc(a1-2)Gal(b1-4)[Fuc(a1-3)]GlcNAc(b1-2)Man(a1-6)]Man(b1-4)GlcNAc(b1-4)GlcNAc
# Outline: as §1
# [3] = target: Fuc(a1-2)Gal(b1-4)[Fuc(a1-3)]GlcNAc(b1-2)[Fuc(a1-2)Gal(b1-4)[Fuc(a1-3)]GlcNAc(b1-4)]Man(a1-3)[Fuc(a1-2)Gal(b1-4)[Fuc(a1-3)]GlcNAc(b1-2)Man(a1-6)]Man(b1-4)GlcNAc(b1-4)GlcNAc
# Outline: as §1
# [4] = target: Fuc(a1-2)Gal(b1-4)[Fuc(a1-3)]GlcNAc(b1-3)Gal(b1-4)[Fuc(a1-3)]GlcNAc
# Outline: as §1
# [5] = target: Fuc(a1-2)Gal(b1-4)[Fuc(a1-3)]GlcNAc(b1-3)Gal(b1-4)[Fuc(a1-3)]GlcNAc(b1-3)Gal(b1-4)[Fuc(a1-3)]GlcNAc
# Outline: as §1
# [6] = target: Fuc(a1-2)Gal(b1-4)[Fuc(a1-3)]GlcNAc(b1-3)GalNAc
# Outline: as §1
# Fuc(a1-2)Gal6S(b1-4)Glc = target: Fuc(a1-2)Gal6S(b1-4)Glc
# Outline: as §1
# [7] = target: Fuc(a1-2)Gal6S(b1-4)Glc6S
# Outline: as §1
# [8] = target: Fuc(a1-2)Gal6S(b1-4)GlcNAc
# Outline: as §1
# Fuc(a1-2)GlcNAc = target: Fuc(a1-2)GlcNAc
# Outline: as §1
# Fuc(a1-2)[Gal(a1-3)]Gal = target: Fuc(a1-2)[Gal(a1-3)]Gal
# Outline: as §1
# [9] = target: Fuc(a1-2)[Gal(a1-3)]Gal(b1-3)GalNAc
# Outline: as §1
# [10] = target: Fuc(a1-2)[Gal(a1-3)]Gal(b1-3)GlcNAc
# Outline: as §1
# [11] = target: Fuc(a1-2)[Gal(a1-3)]Gal(b1-3)GlcNAc(b1-2)Man(a1-3)[Fuc(a1-2)[Gal(a1-3)]Gal(b1-3)GlcNAc(b1-2)Man(a1-6)]Man(b1-4)GlcNAc(b1-4)GlcNAc
# Outline: as §1
# [12] = target: Fuc(a1-2)[Gal(a1-3)]Gal(b1-3)GlcNAc(b1-2)Man(a1-3)[Fuc(a1-2)[Gal(a1-3)]Gal(b1-3)GlcNAc(b1-2)Man(a1-6)]Man(b1-4)GlcNAc(b1-4)[Fuc(a1-6)]GlcNAc
# Outline: as §1
# [13] = target: Fuc(a1-2)[Gal(a1-3)]Gal(b1-3)GlcNAc(b1-3)GalNAc
# Outline: as §1
# [14] = target: Fuc(a1-2)[Gal(a1-3)]Gal(b1-4)Glc
# Outline: as §1
# [15] = target: Fuc(a1-2)[Gal(a1-3)]Gal(b1-4)GlcNAc
# Outline: as §1
# [16] = target: Fuc(a1-2)[Gal(a1-3)]Gal(b1-4)GlcNAc(b1-2)Man(a1-3)[Fuc(a1-2)[Gal(a1-3)]Gal(b1-4)GlcNAc(b1-2)Man(a1-6)]Man(b1-4)GlcNAc(b1-4)GlcNAc
# Outline: as §1
# [17] = target: Fuc(a1-2)[Gal(a1-3)]Gal(b1-4)GlcNAc(b1-2)Man(a1-3)[Fuc(a1-2)[Gal(a1-3)]Gal(b1-4)GlcNAc(b1-2)Man(a1-6)]Man(b1-4)GlcNAc(b1-4)[Fuc(a1-6)]GlcNAc
# Outline: as §1
# [18] = target: Fuc(a1-2)[Gal(a1-3)]Gal(b1-4)GlcNAc(b1-3)GalNAc
# Outline: as §1
# [19] = target: Fuc(a1-2)[Gal(a1-3)]Gal(b1-4)[Fuc(a1-3)]Glc
# Outline: as §1
# [20] = target: Fuc(a1-2)[Gal(a1-3)]Gal(b1-4)[Fuc(a1-3)]GlcNAc
# Outline: as §1
# [21] = target: Fuc(a1-2)[Gal(a1-3)]Gal(b1-4)[Fuc(a1-3)]GlcNAc(b1-3)GalNAc
# Outline: as §1
# [22] = target: Fuc(a1-2)[Gal(a1-4)]Gal(b1-4)GlcNAc
# Outline: as §1
# [23] = target: Fuc(a1-2)[GalNAc(a1-3)]Gal
# Outline: as §1
# [24] = target: Fuc(a1-2)[GalNAc(a1-3)]Gal(b1-3)GalNAc(a1-3)[Fuc(a1-2)]Gal(b1-4)GlcNAc
# Outline: as §1
# [25] = target: Fuc(a1-2)[GalNAc(a1-3)]Gal(b1-3)GlcNAc
# Outline: as §1
# [26] = target: Fuc(a1-2)[GalNAc(a1-3)]Gal(b1-3)GlcNAc(b1-2)Man(a1-3)[Fuc(a1-2)[GalNAc(a1-3)]Gal(b1-3)GlcNAc(b1-2)Man(a1-6)]Man(b1-4)GlcNAc(b1-4)GlcNAc
# Outline: as §1
# [27] = target: Fuc(a1-2)[GalNAc(a1-3)]Gal(b1-3)GlcNAc(b1-2)Man(a1-3)[Fuc(a1-2)[GalNAc(a1-3)]Gal(b1-3)GlcNAc(b1-2)Man(a1-6)]Man(b1-4)GlcNAc(b1-4)[Fuc(a1-6)]GlcNAc
# Outline: as §1
binder,measurement,setting,value
B1,glycan array binding signal (z-score),[1],-0.141
same,glycan array binding signal (z-score),[2],-0.172
same,glycan array binding signal (z-score),[3],-0.059
same,glycan array binding signal (z-score),[4],-0.053
same,glycan array binding signal (z-score),[5],-0.224
same,glycan array binding signal (z-score),[6],0.222
same,glycan array binding signal (z-score),Fuc(a1-2)Gal6S(b1-4)Glc,-0.127
same,glycan array binding signal (z-score),[7],-0.185
same,glycan array binding signal (z-score),[8],-0.183
same,glycan array binding signal (z-score),Fuc(a1-2)GlcNAc,0.049
same,glycan array binding signal (z-score),Fuc(a1-2)[Gal(a1-3)]Gal,0.117
same,glycan array binding signal (z-score),[9],-0.084
same,glycan array binding signal (z-score),[10],-0.103
same,glycan array binding signal (z-score),[11],-0.04
same,glycan array binding signal (z-score),[12],-0.229
same,glycan array binding signal (z-score),[13],-0.075
same,glycan array binding signal (z-score),[14],-0.259
same,glycan array binding signal (z-score),[15],-0.44
same,glycan array binding signal (z-score),[16],-0.099
same,glycan array binding signal (z-score),[17],-0.179
same,glycan array binding signal (z-score),[18],-0.113
same,glycan array binding signal (z-score),[19],-0.162
same,glycan array binding signal (z-score),[20],0.755
same,glycan array binding signal (z-score),[21],-0.134
same,glycan array binding signal (z-score),[22],-0.434
same,glycan array binding signal (z-score),[23],0.212
same,glycan array binding signal (z-score),[24],-0.154
same,glycan array binding signal (z-score),[25],-0.282
same,glycan array binding signal (z-score),[26],-0.123
same,glycan array binding signal (z-score),[27],-0.137
